# Experimental data as given in PubChem BioAssay AID1347073 (National Center for Advancing Translational Sciences (NCATS), 2019).
# Out of some 45,000 compounds screened, about 200 (0.44%) were called active. About 7% were inconclusive and are not listed. Calls follow the shape of the dose curve; as a rule, active = well fitted activation curve with a large enough effect; inconclusive = small, poorly fitted or top-dose-only effect; inactive = no such curve, though single readings can be large or run the other way. The list shows a part of the results. Peptide text beside a SMILES is read from it. * marks the point of attachment. Boc = CC(C)(C)OC(=O)*
# Assay: qHTS of TDP-43 Inhibitors: NCGC Sytravon Library Screen; also: 0% is about no effect; nearly all actives have a fitted effect of over 55% in size
# Conditions: yeast TDP-43 toxicity rescue, BacTiter-Glo growth, 24 h; series mostly up to 46.1 µM; growth rescue (activation): at the top concentration
# Procedure, shortened: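 TDP-43-expressing yeast, pregrown in raffinose, seeded at OD600 0.02 in galactose medium with compound for 24 hr at 30 deg C. Growth read by BacTiter-Glo luminescence, so rescue of toxicity appears as activation.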
row,SMILES,growth rescue (activation)
1,CCOC(=O)/C(=N\Nc1ccccc1Cl)N1CC(C)OC(C)C1 (centres undefined),inactive: 27.5%
2,COc1ccc(CC(=O)N/N=C(/C)CC(=O)N(C)c2ccccc2)cc1,inactive: 8.57%
3,NS(=O)(=O)c1ccc(N=Cc2c(O)n(-c3nccs3)c(=O)c3ccccc23)cc1,inactive: 2.91%
4,CN(C(=O)C1CCN(S(=O)(=O)c2ccccc2[N+](=O)[O-])CC1)C1CCCCC1,inactive: -1.89%
5,CC[n+]1oc(-c2ccccc2)cc1C,inactive: 12.6%
6,COc1ccc(/C=N/N=C2/NC(=O)C(CC(=O)O)S2)cc1OCc1ccc(Cl)cc1Cl (centres undefined),inactive: 15.4%
7,O=C(NCc1ccc2c(c1)OCO2)c1ccc(CS(=O)(=O)Cc2cccc(Cl)c2)o1,inactive: 20.1%
8,CC(C)(C)c1ccc(C(=O)NCCC(=O)N2CCCC2)cc1,inactive: 10.7%
9,CCC(CC)C(=O)N1CCN(Cc2nc3ccccc3c(=O)[nH]2)CC1,inactive: 8.93%
10,CN(C)c1nc(Oc2ccc(=O)[nH]n2)nc(N2CCOCC2)n1,inactive: 5.81%
11,CCN(CC)c1ccc(/C=N/NC(=O)c2ccc3nc[nH]c3c2)cc1,inactive: 17.4%
12,CCCC(CNC(=O)COC(=O)C1=NNC(=O)CC1)c1ccc(Cl)cc1Cl (centres undefined),inactive: 13.3%
13,CC(C)CN(C(=O)CN(C)CC(=O)Nc1ccc(Cl)c(C(F)(F)F)c1)c1c(N)n(CC(C)C)c(=O)[nH]c1=O,inactive: 4.67%
14,O=C1C(Cl)=C(NC2CCCCC2)C(=O)N1c1ccc(Cl)cc1,inactive: 11.1%
15,CC(C)n1c(NCc2ccc(Cl)cc2)nc2ccccc21,inactive: -10.9%
16,O=C(Cc1n[nH]c(=O)c2ccccc12)NCc1ccc(Cl)cc1,inactive: 19.8%
17,CCNC(=O)C1(C)CCCN(Cc2noc(-c3c(C)noc3C)n2)C1 (centres undefined),inactive: 7.77%
18,O=C(NNC(=O)c1cc(-c2ccco2)nc2ccccc12)c1ccccc1,inactive: -4.97%
19,O=C(Nc1ccc(N2CCCC2)cc1)C(c1ccccc1)c1ccccc1,inactive: 30.7%
20,Cc1ccc2cc(C#N)c(SCc3nnc(-c4ccccc4[N+](=O)[O-])o3)nc2c1,inactive: 7.19%
21,Cn1nnnc1NCc1cccc(Cl)c1Cl,inactive: -4.99%
22,CCOc1ccc(NC(=O)CCCCn2c(=O)[nH]c3ccsc3c2=O)cc1,inactive: 10.5%
23,CC(=O)NCCNC(=O)c1ccc(CSc2ccc(Cl)cc2)cc1,inactive: 3.93%

row,SMILES,growth rescue (activation)
1,COc1ccc(C(=O)NCC(=O)OCc2ccc(Br)cc2)cc1,inactive: 4.81%
2,CC(C)(C)c1ccc(C(=O)N2CCC2(C)C(=O)NCCC#N)cc1 (centres undefined),inactive: 6.92%
3,Cc1cccc(NC(=S)N(CCc2ccncc2)C(C)C)c1C,inactive: -3.75%
4,COc1ccc(/C(O)=C2/C(=O)C(=O)N(CCCN(C)C)C2c2cccc(Cl)c2)cc1OC (centres undefined),inactive: 9.92%
5,COc1cc2c(cc1NC(=O)C(C)OC(=O)/C=C/c1ccc(OC(F)F)cc1)oc1ccccc12 (centres undefined),inactive: 5.95%
6,O=C(c1ccccc1)N1CN2CN(C(=O)c3ccccc3)CC([N+](=O)[O-])(C2)C1,inactive: 30.7%
7,CC(=O)c1ccc(N2CCN(C(=O)Nc3ccc(C)cc3)CC2)cc1,inactive: 2.48%
8,Cc1cc(NC(=O)COC(=O)CNS(=O)(=O)c2ccc(C)c(C)c2)no1,inactive: -5.93%
9,CC(NC(=O)COC(=O)c1ccc2ccccc2n1)c1ccccc1 (centres undefined),inactive: 20.4%
10,O=C(COC(=O)Cc1ccsc1)Nc1ccc(S(=O)(=O)N2CCOCC2)cc1,inactive: -7.45%
11,COc1ccc(NC(=O)CSc2nnc(N)s2)cc1,inactive: 18.9%
12,CC(C)NC(=O)CC(=O)NN=C1CCCCC1,inactive: 8.8%
13,Fc1ccccc1COc1cccc2cccnc12,inactive: 12.3%
14,CCCCOc1cccc(C(=O)NC(=S)Nc2cccc(C(F)(F)F)c2)c1,inactive: -3.31%
15,O=C(CSc1ccc2c(c1)OCCO2)NCc1ccccc1,inactive: -1.66%
16,COc1ccc(CCN2CC(C(=O)NCc3nc(C)c(C)s3)CCC2=O)cc1 (centres undefined),inactive: -2.1%
17,O=C(COc1nsnc1N1CCOCC1)Nc1ccc([N+](=O)[O-])cc1,inactive: -8.99%
18,Cc1ccccc1NC(=O)Nc1nc(C2CCC(=O)N2)cs1 (centres undefined),inactive: 3.37%
19,CCCN(CCC)CCCNC(=O)c1cc2c(=O)[nH]c3ccccc3c2s1,inactive: -6.15%
20,CNC(=O)NC(=O)CN1C(=O)NC2(CCOc3ccccc32)C1=O (centres undefined),inactive: 1%
21,COc1cc(CN(C2CCCCC2)S(=O)(=O)c2ccc(S(=O)(=O)N(C)C3CCCCC3)cc2)cc(OC)c1OC,inactive: 11.5%
22,Cn1nc(C2CC2)cc1NC(=O)C1(C)CCN1C(=O)CCc1ccccc1 (centres undefined),inactive: 5.76%
23,CC1CCc2cc(F)ccc2N1C(=O)c1ccncc1 (centres undefined),inactive: 9.19%

row,SMILES,growth rescue (activation)
1,Cc1cc(=O)n2[nH]c(CCC(=O)O)nc2n1,inactive: 27.6%
2,CCn1c(SCC(=O)N/N=C\c2ccccc2OCC(=O)O)nnc1-c1ccc(Cl)cc1,inactive: 11.1%
3,NS(=O)(=O)c1ccc(Cc2ncc(C(F)(F)F)cc2Cl)s1,inactive: 13.1%
4,O=Cc1c(C(=O)O)n(CC(=O)O)c2ccccc12,inactive: 17.9%
5,CSc1ccc(CN2CCN(C(=O)c3ccc([N+](=O)[O-])cc3)CC2)cc1,inactive: -5.92%
6,CCCCN(C)CCC(=O)Nc1ccc2c(c1)CCC2,inactive: -12.5%
7,C[C@]12C=CC(=O)C=C1CCC1C2CC[C@@]2(C)C1CCC21OCCO1 (some centres undefined),inactive: 13%
8,CCc1cccc(C)c1Nc1c(-c2ccc(F)cc2)nc2sccn12,inactive: 25.3%
9,CCCCN(CC)CCNC(=S)Nc1ccc2nc(N3CCN(C)CC3)cc(C)c2c1,inactive: 2.58%
10,O=C(COc1ccc(F)cc1Br)NCC1(N2CCCCC2)CCCCC1,inactive: 2.92%
11,COc1ccc(/C=N/n2c(SC)nnc2-c2ccccc2)c(OC)c1OC,inactive: 26.8%
12,CCc1nc2ccc(C(=O)N(CC)CCN(C)C)cn2c1N(C=O)CCC(C)C,inactive: 9.65%
13,Cc1cccc(N(CC(=O)NCc2ccco2)C(=O)CCC(=O)Nc2ccccn2)c1C,inactive: -8.45%
14,COc1ccc(C(=O)NN=C(Cc2ccccc2)Cc2ccccc2)cc1OC,inactive: 15.9%
15,CCCCCC(=O)NC(=S)NNC(=O)c1ccc([N+](=O)[O-])cc1,inactive: 13.1%
16,Cc1ccc(-n2c(C)cc(=O)cc2C)c(C)c1,inactive: 2.03%
17,COc1cc(NC(=S)NCCC(c2ccccc2)c2ccccc2)c(OC)cc1Cl,inactive: -1.23%
18,COc1ccc(Br)cc1CN(C)C(=O)C1CC(=O)N(C2CCCC2)C1 (centres undefined),inactive: 17.7%
19,Cc1cc(Cl)ccc1NC(=O)CN1CCN(C(=O)c2ccco2)CC1,inactive: 9.77%
20,CCOC(=O)c1sc(NC(=O)CSc2n[nH]c(C)n2)nc1C,inactive: 12.7%
21,O=C(COC(=O)c1cccnc1Cl)Nc1ccc(S(=O)(=O)N2CCOCC2)cc1,inactive: -8.72%
22,O=C(CCOc1ccccc1)Nc1cccc([N+](=O)[O-])c1,inactive: 0.839%
23,CCC(C)C(NC(=O)OC(C)(C)C)C(=O)NC(C(=O)NC(C)C(N)=O)C(C)C (stereo not drawn) (Boc-Ile-Val-Ala-NH2; configuration not given here),inactive: 16.5%
